Assay results taken from publication PMC4336329 (PLoS ONE, 2015).
The campaign covered roughly 310,000 compounds. About 2,200 (0.71%) showed an effect of 50% or more. The effect is printed as a negative number. The list shows a part of the results.

target: human ether-à-go-go-related gene (hERG) potassium channel (human, UniProt Q12809); experiment: primary screen, population patch clamp on CHO cells stably expressing hERG
Sequence (Q12809 whole entry, looked up): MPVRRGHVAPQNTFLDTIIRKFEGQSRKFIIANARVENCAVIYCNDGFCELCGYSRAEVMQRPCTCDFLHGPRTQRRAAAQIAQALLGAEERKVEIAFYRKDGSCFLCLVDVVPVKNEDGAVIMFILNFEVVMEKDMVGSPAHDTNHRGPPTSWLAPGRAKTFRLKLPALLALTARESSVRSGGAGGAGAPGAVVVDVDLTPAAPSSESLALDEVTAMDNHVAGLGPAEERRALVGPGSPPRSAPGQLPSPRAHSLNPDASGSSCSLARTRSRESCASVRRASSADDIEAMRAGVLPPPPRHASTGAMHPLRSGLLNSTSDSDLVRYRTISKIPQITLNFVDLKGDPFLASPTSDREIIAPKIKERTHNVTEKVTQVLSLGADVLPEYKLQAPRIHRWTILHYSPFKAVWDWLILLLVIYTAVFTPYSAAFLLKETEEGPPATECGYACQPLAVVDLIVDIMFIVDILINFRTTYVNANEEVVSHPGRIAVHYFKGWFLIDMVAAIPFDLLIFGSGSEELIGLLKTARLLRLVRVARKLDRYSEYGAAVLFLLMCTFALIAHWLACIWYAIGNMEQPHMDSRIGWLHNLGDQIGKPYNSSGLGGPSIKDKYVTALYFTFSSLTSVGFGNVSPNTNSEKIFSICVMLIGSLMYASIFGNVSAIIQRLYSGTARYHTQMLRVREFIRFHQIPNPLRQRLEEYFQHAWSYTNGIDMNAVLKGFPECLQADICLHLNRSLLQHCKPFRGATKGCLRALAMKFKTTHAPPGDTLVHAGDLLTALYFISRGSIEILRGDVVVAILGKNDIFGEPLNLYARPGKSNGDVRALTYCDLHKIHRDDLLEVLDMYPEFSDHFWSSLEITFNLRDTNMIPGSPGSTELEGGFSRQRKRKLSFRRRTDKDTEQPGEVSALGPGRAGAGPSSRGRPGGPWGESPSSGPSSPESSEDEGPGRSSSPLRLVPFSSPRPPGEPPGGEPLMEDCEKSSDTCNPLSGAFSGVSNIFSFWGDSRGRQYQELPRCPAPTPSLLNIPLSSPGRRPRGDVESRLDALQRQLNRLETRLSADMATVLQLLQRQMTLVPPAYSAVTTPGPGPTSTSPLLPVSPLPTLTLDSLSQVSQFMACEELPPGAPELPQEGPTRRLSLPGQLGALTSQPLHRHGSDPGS

Compound	hERG current change (%, negative = inhibition) at 1uM
Cc1cc(NC2CCCC2)n2nc(C)c(-c3ccccc3)c2n1	14.9%
CCc1nnc(-n2nc(C)cc2-c2ccccc2)n1N.Cl	-5.64%
O=C1[C@H]2[C@H](C=CC[C@H]2C(=O)N2CCOCC2)CCN1Cc1ccc(Cl)c(Cl)c1	5.05%
CCN(CC)CCN(C)Cc1ccc(Br)cc1	-13.2%
Cc1cccc(NC(=O)CSc2nc(NS(=O)(=O)c3ccccc3)cc(=O)[nH]2)c1	15.9%
Cc1cc(C(=O)N/N=C/c2c[nH]c3ccccc23)cs1	10.2%
CC(CCc1ccccc1)NC(=O)Cc1ccc(Br)cc1 (stereo not drawn)	10.3%
O=C(NC1CCCCC1)C(c1ccco1)N(C(=O)c1csnn1)c1cccc(Cl)c1 (stereo not drawn)	19%
CCN(CCCNC(=O)CN(C)S(=O)(=O)c1ccc2c(c1)CCC(=O)N2)c1cccc(C)c1	5.48%
O=C(Nc1c(F)cc(F)cc1F)c1cccn(Cc2ccccc2)c1=O	-3.17%
CCOc1ccc2[nH]c3nc(SCC(=O)NC4CCCC4)nnc3c2c1	10.5%
C=CCNC(=S)NNC(=O)CSc1nc2ccccc2s1	-10.6%
O=C(c1ccncc1)N1CCN(S(=O)(=O)c2ccc(F)cc2)CC1	20%
Cc1ccc(C)c(-n2c(-c3cccnc3)n[nH]c2=S)c1	18.2%
Cc1nc2ccccc2n1Cc1ccccc1	11.3%
CCCc1nc2ccccc2c(=O)n1NC(=O)c1c(O)c2ccccc2[nH]c1=O	10.1%
COCCC(=O)N1CCC(Oc2ccc(C(=O)N3CCC[C@H]3CO)cc2)CC1	27.7%
CCc1n(CC(O)COC2CCCCC2)c2ccccc2[n+]1C.[I-] (stereo not drawn)	12.5%
Cc1cccc(NC(=O)CN2C(=O)N/C(=C/c3cc(C)n(C(C)C)c3C)C2=O)c1	4.65%
COc1ccc2cc(-c3ccn[nH]3)ccc2c1	15.7%
C=CCn1c(=O)c2ccccc2n2c(SCc3nc4ccccc4s3)nnc12	8.48%
COc1ccc2c(c1OC)C(=O)N(C(C)C(=O)O)C2=O (stereo not drawn)	12.2%
CCOC(=O)N1CCN(C2=C(NS(=O)(=O)c3ccc(NC(C)=O)cc3)C(=O)c3ccccc3C2=O)CC1	20%

Compound	hERG current change (%, negative = inhibition) at 1uM
CCN1CCN(c2nc3ccccc3nc2C(C#N)C(=O)OCc2ccccc2)CC1 (stereo not drawn)	-3.43%
CCN1C(=O)C(O)(CC(=O)c2ccccn2)c2ccccc21 (stereo not drawn)	10.3%
O=C(c1ccc(Cl)c(S(=O)(=O)N2CCCCCC2)c1)N1CCN(c2ccc(O)cc2)CC1	-1.7%
O=c1cc(-c2ccccc2)nc(SCc2ccccc2)[nH]1	5.52%
CC(C)CCn1c(Oc2ccc(Cl)cc2)nc2c1c(=O)n(C)c(=O)n2C	0.337%
COc1cccc(C(=O)C2CCCN(Cc3cccn3-c3cccnc3)C2)c1 (stereo not drawn)	-6.89%
C=CCNC(=O)NC(=O)COC(=O)c1cccnc1SC	2.52%
CCCNC(=O)c1c(N)n(-c2ccc(S(N)(=O)=O)cc2)c2nc3ccccc3nc12	7.38%
COc1cc(-c2cc(-c3ccccc3)nc(SCC(=O)O)c2C#N)cc(OC)c1OC	29.3%
O=C(Nc1oc2ccccc2c(=O)c1-c1ccc(Cl)cc1)c1ccco1	19.3%
Cc1cc(C)c(S(=O)(=O)N2CCCC(C(=O)N3CCCC3)C2)c(C)c1 (stereo not drawn)	-7.05%
C/C=C(\C)C(=O)OC(C)(C)[C@@H]1Cc2cc3ccc(=O)oc3cc2O1	7.1%
Cc1cc(Cl)cc(C)c1OCCn1ccnc1.Cl	5.35%
Cc1ccc2nc(SCCC(=O)O)cc(C)c2c1	9.13%
O=C(O)CCN1C(=O)/C(=C\c2cccc(OCc3ccccc3)c2)SC1=S	9.47%
Cc1nn(C2CCCCC2)c(N)c1-c1ccccc1	8.17%
O=C(CN1C(=O)c2cccc3cccc1c23)N1CCc2ccccc2C1	4.01%
Cc1oc2c(c1C(=O)NC(Cc1c[nH]c3ccccc13)C(=O)O)CCCC2 (stereo not drawn)	10.2%
COC(=O)c1cc(S(=O)(=O)Nc2ccsc2C(=O)OC)oc1C	14%
S=C1SCN(Cc2cccnc2)CN1Cc1ccccc1	-0.777%
CCC(C(=O)OCC(=O)NC(=O)c1ccccc1)c1ccccc1 (stereo not drawn)	23.4%
O=C1NC(=O)C(c2cn(-c3ccccc3)nc2-c2ccc(F)cc2)N1 (stereo not drawn)	7.05%
O=C1CCCN1CCCNC(=S)Nc1ccccc1	-10.2%

Compound	hERG current change (%, negative = inhibition) at 1uM
CCOc1ccccc1NC(=O)C1CCN(S(=O)(=O)c2cccc3cccnc23)CC1	2.98%
CCCCc1c(O)nc(SCC(=O)c2ccccc2)n(-c2ccccc2C)c1=O	14.3%
CC(=O)Nc1ccc(N=Nc2ccccc2)cc1	3.83%
CCCn1nnnc1-c1ccc(Cl)cc1	14.2%
Cc1cccc(C)c1NC(=O)CCCSc1nnc(-c2ccc(F)cc2)n1-c1ccccc1	-9.96%
CCC(c1nnnn1Cc1ccco1)N(CCc1ccccc1)Cc1cc2ccc(OC)cc2[nH]c1=O (stereo not drawn)	3.46%
Cc1ccc(N(C)S(=O)(=O)c2ccc3c(c2)CC(C)N3C(=O)C2CC2)cc1 (stereo not drawn)	15.2%
CCc1ccc2[nH]c(=O)c(C(c3nnnn3CCOC)N3CCN(c4ccccc4)CC3)cc2c1 (stereo not drawn)	6.35%
COc1ccc(C(O)P(=O)(OCC(C)C)c2ccc(N(C)C)cc2)c(OC)c1 (stereo not drawn)	4.26%
COc1ccc2cc(C(C)c3nc4ccccc4c(=O)n3N)ccc2c1 (stereo not drawn)	6.93%
Cn1nnnc1SCC(=O)Nc1ccccc1[N+](=O)[O-]	-10.1%
COc1cc(OC)cc(C(=O)Nc2c(F)cccc2F)c1	6.12%
Fc1ccccc1-c1nc2ncccc2o1	-3.64%
O=C(COC(=O)/C=C/c1ccco1)NCc1ccccc1	15.6%
COc1ccc(NC(=O)c2cc(C)nn2-c2ccccc2)cc1	14%
O=C(CCNS(=O)(=O)c1ccccc1Cl)N1CCN(c2ccccn2)CC1	-7.42%
CC(Oc1ccc2ccccc2c1)C(=O)N/N=C/c1cccnc1 (stereo not drawn)	8.17%
O=C(NCCCO)C(=O)Nc1cc2c3c(c1)CCC(=O)N3CCC2	24.8%
Cc1[nH]c2ccccc2c1C(C[N+](=O)[O-])c1ccco1 (stereo not drawn)	4.88%
CCCOc1ccc(N2C(=O)CC(N(Cc3ccc(S(N)(=O)=O)cc3)C(=O)CC)C2=O)cc1 (stereo not drawn)	-4.58%
CCCCC(=O)Nc1ccc(Br)cn1	6.44%
COc1ccc(NC(=O)CN(C)C(=O)c2cc(CN3C(=O)c4ccccc4C3=O)ccc2OC)cc1	-3.11%
C/C(=N\OCC(=O)N/N=C/c1ccc(C)cc1O)c1cccs1	9.1%

Compound	hERG current change (%, negative = inhibition) at 1uM
COc1cccc(-c2nc(CS(=O)(=O)CC(=O)NC3CCCc4ccccc43)c(C)o2)c1 (stereo not drawn)	13.2%
CC(=O)Nc1ccc(S(=O)(=O)NCC2CCC(C(=O)NCCCOC(C)C)CC2)cc1 (stereo not drawn)	15.8%
COc1ccc(/C=C/C(=O)NC(=S)Nc2ccc(S(N)(=O)=O)cc2)cc1OC	16.9%
CCS(=O)(=O)N1CCC(C(=O)Nc2cc(C)ccc2O)CC1	10.9%
COc1ccc([C@H]2CC(=O)C=C(c3ccc(C)c4ccccc34)C2)cc1	16.2%
CC(=O)N(CC(=O)O)c1ccccc1	8.85%
O=C(Nc1nc2ccc(F)cc2s1)c1ccccn1	9.3%
COc1ccc(C(=O)NCCS(=O)(=O)NCc2ccc3c(c2)OCO3)cc1	10.7%
Cc1cc([N+](=O)[O-])nn1CC(=O)NCc1ccco1	6.14%
Cc1c(Cl)cccc1NC(=O)CN1CCN(CCO)CC1	7.01%
CCCS(=O)(=O)N1CCC(C(=O)NCCCOCC)CC1	8.29%
Fc1ccc(-n2cc(CNCCc3ccccn3)c(-c3ccccc3Cl)n2)cc1	-78.2%
COc1ccc(C(=O)Nc2ccc3ccccc3c2)cc1OC	5.81%
COC(=O)Nc1ccc(S(=O)(=O)NCCCCCC(=O)O)cc1	-10.1%
O=C(NCc1ccco1)[C@@H]1CCCN1C(=O)c1cccs1	0.875%
Cc1nc(N2CCOCC2)nc(OCCN2CCOCC2)c1[N+](=O)[O-]	6.76%
O=C(c1ccccc1Br)N1CCCC(c2nc(-c3cccs3)no2)C1 (stereo not drawn)	13.2%
CS(=O)(=O)c1ccc(NC(=O)CCCc2nc3ccccc3c(=O)[nH]2)cc1	14.9%
CCN(Cc1ccc(C#CCCO)cc1)CC1CCCN(CCc2cccc(F)c2)C1 (stereo not drawn)	-8.19%
Cc1cc(=O)n2[nH]cnc2n1	8.28%
Cn1c(=O)oc2cc(S(=O)(=O)N3CCN(C(=O)c4ccco4)CC3)ccc21	-1.41%
